Results published in the RNAGym collection of RNA variant scans (doi:10.7554/elife.90254).
The source gives no read counts; variants with many changes may rest on few reads.

B1: OR4K15 (parent)
chain: GUUAACGGUCAUAGGCCAUGGAAACUAGGAGCACCAUUUCGCUGCCAGUGAAGAAAUGAACAAAGAAAAUCUGGGCCAGGCAGGCAUCAAAAGAAAUAGUCUUGCGCUCAACCAGAAAGUCUGUAAUCAUUUUAAGGGUA

Variants of: B1
Test: self-cleavage, relative activity (ratio to wild type); higher = more cleavage; in vitro, sequencing; the parent is a self-cleaving ribozyme
In the case of U70C U87C A92G, the self-cleavage is reported as 1.04. Variant A13C A98U U132C has a self-cleavage of 0.83. For U70C A114G A117G, the self-cleavage was 0.21. For A24G G74A A126G, the self-cleavage was 0.08. With G29A A52G U133C the self-cleavage was 2.63. In the case of A51G A54G A94G, the self-cleavage is reported as 0.8. A62G U102C A126G A135U gave a self-cleavage of 0.88. Variant U26C A67U C112U C128A has a self-cleavage of 0.05. In the case of C81A A92G U127C, the self-cleavage is reported as 0.03. Work on U43A A66G A117G yielded a self-cleavage of 2.63. With U19C A52U A60G U87C U122A the self-cleavage was 0.27. Work on A23G C35U A47G U87C yielded a self-cleavage of 0.33. G20A A82U G106A U132C showed a self-cleavage of 0. In the case of U12C A68G C77A A90G A95G A126G A135G, the self-cleavage is reported as 1.42. Work on A11G G58U A86U A118G yielded a self-cleavage of 1.04. U70C C81A U127C showed a self-cleavage of 0.15. For A11G U43C C101A, the self-cleavage was 0.09. Work on A13G A51C A89G yielded a self-cleavage of 0.73. Variant A51C A66G A117G has a self-cleavage of 0.83. Variant A11G A56G A68G has a self-cleavage of 0.68. With C40U A90G A118U the self-cleavage was 0.38. In the case of A18U A67G A92G, the self-cleavage is reported as 0.27. Variant A30G A47G U49C U103C has a self-cleavage of 0.51. Work on A30G A47G A95G U97A yielded a self-cleavage of 0.81. U26C A51U U122C showed a self-cleavage of 1.11. Work on A63G A69G A86C U120C U127C U139A yielded a self-cleavage of 0.15. A96G U108C A111G gave a self-cleavage of 0.01. Work on U49C A55G G115A yielded a self-cleavage of 0. In the case of A18U A62G A90G, the self-cleavage is reported as 1.69. A18U U37C A51G U97C showed a self-cleavage of 0.85. For A36G A90G U103C U139C, the self-cleavage was 1.05. In the case of U39C A64G U102C, the self-cleavage is reported as 2.14. With A64G U103A A114U U122C the self-cleavage was 0.01. A52G A60G C61U U87C U100C U124C showed a self-cleavage of 1.7. Work on A18G C35U A66G yielded a self-cleavage of 0.98. For A56G A67G A90U, the self-cleavage was 1.81. For A30U U72C U97C, the self-cleavage was 0.11. Variant C85U C109U A118G has a self-cleavage of 0.28. In the case of U2C A27G A47G U49C A55G, the self-cleavage is reported as 0.49. A22G U37C U38A A60U gave a self-cleavage of 1.48. Variant A59G A60G A67G has a self-cleavage of 1.01. U2C A11G A47U A59U A63C A91G A95G showed a self-cleavage of 1.48. With A24G A69G A98G the self-cleavage was 0.5. Variant U2C A22G A54G A110U has a self-cleavage of 1.39. For A18U U49C A60G A78U, the self-cleavage was 0.18. A62G A94U A95G A116G U133C A134U gave a self-cleavage of 1.68. U26C A68G U132C showed a self-cleavage of 1.37. A33U U102C A111C gave a self-cleavage of 0. In the case of U2C U9C C32U U43G A116G U130C, the self-cleavage is reported as 0.35. Variant A30G U57C A60G A95G has a self-cleavage of 1.14. In the case of A36G A59G A68G U70C G115A, the self-cleavage is reported as 0.03. For A23G A33U A59G, the self-cleavage was 1.04. G7C U108C A129G gave a self-cleavage of 0. A62U U87C U102C gave a self-cleavage of 2.01. U2C U70C A86U U108A gave a self-cleavage of 0. A13G U70G U102G gave a self-cleavage of 0.29. Work on A5G A30G U70C A111G A116G U120C yielded a self-cleavage of 0.03. A55G A78U U122C showed a self-cleavage of 0.26. In the case of U26C A51G A82G, the self-cleavage is reported as 0.86. Work on U19C A86G A96G U131C yielded a self-cleavage of 1.7. With A11G A62U U97A U132A U139A the self-cleavage was 1.11. In the case of A36G U100C A118G, the self-cleavage is reported as 1.57. Variant U19C U38G A66G G73A U108C U127C has a self-cleavage of 0.01. In the case of A54G G80A A111U U131C, the self-cleavage is reported as 0.02. U38C U39C A56G G106A showed a self-cleavage of 0.01. For A56G G80A A91U, the self-cleavage was 0.39. A24G A27G A55G A78G U120C gave a self-cleavage of 0.18. U19A A62G A66G U122C gave a self-cleavage of 0.84. With A82G U87C A94C U102C A118C the self-cleavage was 0.32. Variant A52U A69G A94G A117U G137A has a self-cleavage of 0.72. With A90G G106A A135U the self-cleavage was 0.01. In the case of U3C A22G A24G A116G, the self-cleavage is reported as 1.17. In the case of A54U U72C A90G U122G, the self-cleavage is reported as 0.35. A11U C61U G74U U103C A111U gave a self-cleavage of 0.03. For A5G U19C A59G U100C, the self-cleavage was 0.99. With A56G A60G A63G U122A the self-cleavage was 0.32. A96G U103C A135G gave a self-cleavage of 0.92. C85U A94G U103C showed a self-cleavage of 0.23. U9A C10U U12A A55G U100C A125G showed a self-cleavage of 0.55. In the case of A23G A56G U132C, the self-cleavage is reported as 1.13. Work on A18U U43C A82U A116U U122C U139C yielded a self-cleavage of 0.04. A64G A125G U133C gave a self-cleavage of 0.71. For A11G G75C A94G, the self-cleavage was 0.24. Variant G7U G29U A94U has a self-cleavage of 1.37.
